These results are taken from PMC12136788.

The other results are listed elsewhere or left out.

T1: UNK ZnF1-6 (called full-length) (human, UniProt Q9C0B0 30-357)
T1 sequence: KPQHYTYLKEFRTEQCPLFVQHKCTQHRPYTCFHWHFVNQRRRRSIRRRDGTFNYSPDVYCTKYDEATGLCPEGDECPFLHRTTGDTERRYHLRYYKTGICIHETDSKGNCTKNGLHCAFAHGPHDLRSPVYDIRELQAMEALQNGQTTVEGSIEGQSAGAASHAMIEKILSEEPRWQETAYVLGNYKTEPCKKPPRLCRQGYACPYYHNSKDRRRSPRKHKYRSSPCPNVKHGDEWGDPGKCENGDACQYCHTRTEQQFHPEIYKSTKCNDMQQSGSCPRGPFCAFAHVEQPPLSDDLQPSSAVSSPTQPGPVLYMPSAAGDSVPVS

B1: chr6:57184343:57184440:+|3pUTR|ENSG00000112208|msi1_unk|total|mutant (ssRNA)
RNA: GGGAGUUCUACAGUCCGACGAUCUCUUCAGUUUUGUGAAUAACAAAACCCGCAAUAUUUUAAUUAUCUAUCCCGAGAUUUUUCCGAUUGAAUUCUUGUCUUGUACCCGGAUCCCGCAUAUUUCACUAUUCUGUGGAUGAAUACCAACAGAGGAUUGAGCAUCA
B2: chr10:103289619:103289731:+|3pUTR|ENSG00000148798|unk|FALSE|unique (ssRNA)
RNA: GGGAGUUCUACAGUCCGACGAUCAUGAGUGGAAAAAGCCAAGGUGUCAUUUAUGUGUCAGUUCAUUUGUGGUGAUAUAGAAUUAGCUUUUUCAUCCCCUUACCCUUAGAAUCCACGUAUUCCCCUUCCCACUAGCCUAGGUCACAACAGAGGAUUGAGCAUCA
B3: ENSG00000164951:stop:overlap|stop_codon|ENSG00000164951|stop_codon|NA|stop_codon (ssRNA)
RNA: GGGAGUUCUACAGUCCGACGAUCUUACAAUCAUUGUAGUUCAGUUCAAUUCUCAUGUUGUAGGGGCGUAUCAAAACCAAGAAUAGUGAGUGGCUCUUUCACUGGCAAUUCUCAAAUGAUAUACAUUUAAAGGGCAGAUUUUUUCAACAGAGGAUUGAGCAUCA
B4: ENSG00000198589:be:win_3151|CDS|ENSG00000198589|bound_else_gene|NA|bound_elsewhere_windowed (ssRNA)
RNA: GGGAGUUCUACAGUCCGACGAUCUCUUCUGACAUAAUAGAAGCUGUGGCUAUUUCCUCUAAUUCUUUUAUAACAACUGGCAAAGAUUCAAUGACUGUCAGUGAAGUAACUGCUUCUAUAAGUUCUCCUUCAGAAGAGGAUGCCCAACAGAGGAUUGAGCAUCA
B5: chr11:62752106:62752207:-|CDS|ENSG00000185670|msi1|FALSE|unique (ssRNA)
RNA: GGGAGUUCUACAGUCCGACGAUCGGCUCACAAUGAGGACCUGGCCAAACGCAGCAAACCAGAUCCAGAAGUGGGACCCCUUCUAGGGGUGCAGCCUCUCCCUGGCUCCCCAACAGCAGACAGACAGAGCAGCAGUGGUGGAGGCAACAGAGGAUUGAGCAUCA
B6: ENSG00000107863:be:win_4051|CDS|ENSG00000107863|bound_else_gene|NA|bound_elsewhere_windowed (ssRNA)
RNA: GGGAGUUCUACAGUCCGACGAUCGUGCAGGAGGAAAGCACAGUAGACUCCCAGCCAGUGCCAAACAUAGAUCAUUUACUCACCAACAUUGGAAGGACAGGAGUCUCCCCAGGAGAUGUAUCAGAUUCAGCUACUAGUGACUCACAACAGAGGAUUGAGCAUCA
B7: chr9:128729785:128731336:-|three_prime_utr|ENSG00000160445|control|control|control (ssRNA)
RNA: GGGAGUUCUACAGUCCGACGAUCCUCCCACGGAGUGAAGAGACAUGGGGGACUUUUGCACAACCGACGCUUUUCCUUAAUGUUAGUGAGAUAUAUAUAUAUUAUAUAUAUAUAUUUUUUUUUUGGUUAGGAAGUGUGAAGUUUCAACAGAGGAUUGAGCAUCA
B8: ENSG00000070961:be:win_1351|CDS|ENSG00000070961|bound_else_gene|NA|bound_elsewhere_windowed (ssRNA)
RNA: GGGAGUUCUACAGUCCGACGAUCAUGAAAGAUAAUAACUUAGUAAGGCAUCUGGAUGCUUGUGAAACCAUGGGAAAUGCUACAGCUAUUUGUUCAGAUAAAACAGGAACUUUGACAAUGAACAGAAUGACAGUCGUUCAAGCUCAACAGAGGAUUGAGCAUCA
B9: chr8:27733518:27733645:-|3pUTR|ENSG00000147419|unk|total|mutant (ssRNA)
RNA: GGGAGUUCUACAGUCCGACGAUCGACCUUUUGAUUUUGAAGCAGACUAAAAUCUGACCAGACCACAAUGAAAAGUAUAAAAUCCGAAACUUAAAUUCCAAGCUAAAUUUCAGCUUUGACCCACCUAACUCCAGUGAACCGGUGCAACAGAGGAUUGAGCAUCA
B10: chr4:87473334:87473774:-|three_prime_utr|ENSG00000152583|control|control|control (ssRNA)
RNA: GGGAGUUCUACAGUCCGACGAUCCUUUCCAGCAUCCUCCUCUGUUCUAACCACUUCAGAAAUAUAUGCAGCUGUGAUACUUGUAGAUUUAUAUUUAGCAAAAUGUUAGCAUGUAUGACAAGACAAUGAGAGUAAUUGCUUGACCAACAGAGGAUUGAGCAUCA
B11: chr1:35190724:35191005:-|CDS|ENSG00000116560|unk|FALSE|unique (ssRNA)
RNA: GGGAGUUCUACAGUCCGACGAUCGCCCUUUCUGUUCGUAAUCUUUCACCUUAUGUUUCCAAUGAACUGUUGGAAGAAGCCUUUAGCCAAUUUGGUCCUAUUGAAAGGGCUGUUGUAAUAGUGGAUGAUCGUGGAAGAUCUACACAACAGAGGAUUGAGCAUCA
B12: chr9:14618660:14618761:-|3pUTR|ENSG00000175893|msi1|total|mutant (ssRNA)
RNA: GGGAGUUCUACAGUCCGACGAUCUCCGCUUUCCACAGGGAUUUCUUGAAAUGCUUUUGUUAUUAAACUCAAAAGGCAGUGAUCCGGAUGAAAUAAUUGUACAUAAUUUAUUUCCGUACUGACAGUGUUACAGAUUCUAAUUUACAACAGAGGAUUGAGCAUCA
B13: chr5:40767470:40767586:-|CDS|ENSG00000132356|unk|total|mutant (ssRNA)
RNA: GGGAGUUCUACAGUCCGACGAUCUUUAAGAAGAUAUGUGAUGGGAUCUUCUAUACCCCUCAAUAUUUAAAUCCUUCUGUGAUCCGCCUUUUGAAACAUAUGCUGCAGGUGGAUCCCAUGAAGAGGGCCACAAUCAAAGAUAUCCAACAGAGGAUUGAGCAUCA
B14: chr1:20652278:20652361:-|3pUTR|ENSG00000244038|msi1_unk|FALSE|overlapping (ssRNA)
RNA: GGGAGUUCUACAGUCCGACGAUCGACUGAGGGGCUAGAGCCCUCUCCGCACAGCGUGGAGACGGGGCAAGGAGGGGGGUUAUUAGGAUUGGUGGUUUUGUUUUGCUUUGUUUAAAGCCGUGGGAAAAUGGCACAACUUUACCUCAACAGAGGAUUGAGCAUCA
B15: chr2:189754195:189754303:-|CDS|ENSG00000128694|unk|total|mutant (ssRNA)
RNA: GGGAGUUCUACAGUCCGACGAUCCCAGAGUGCUCCACCAUGAGUGGUGGGAAAGCCACCGAACAUUUGGCCAAACAAGGAAACCGAUUUCAUUUUGACAUCAAACCUCCCUUGCAUCAUGCUAAAAAUUGUGAUUUUUCUUUUCAACAGAGGAUUGAGCAUCA
B16: chr8:116846039:116846140:-|3pUTR|ENSG00000164754|msi1|FALSE|bound_elsewhere (ssRNA)
RNA: GGGAGUUCUACAGUCCGACGAUCACAUUCAAUAUGAUGUGCCUGUAAACCAAGGAGUUUUCCCCGUUUGUAAAAAGACAUUGUAGAUAAUUGAAUGUUUGAUUUUAGAAAGGUCAUUAGUUUCUUGUUACACAUUUUGUUAGUCAACAGAGGAUUGAGCAUCA
B17: chr5:60870179:60870280:-|3pUTR|ENSG00000049167|unk|FALSE|unique (ssRNA)
RNA: GGGAGUUCUACAGUCCGACGAUCUCUCCUUGCCCUUUUUGUUUUGUUUUGUUUCAAUUCUUAGAACUGUAGUUGGCAUGUAGUAGGUGCUUAAUAAUUACUUGUUUUGUUGUUUCUGUCCUAUACUUUGAGAGUUUGUGUUUGCAACAGAGGAUUGAGCAUCA
B18: chr1:183142599:183142700:+|CDS|ENSG00000135862|msi1|total|mutant (ssRNA)
RNA: GGGAGUUCUACAGUCCGACGAUCAACGAGAUUGAAGGCACCCUAAACAAAGCCAAAGAUGAAAUGAAGGUCAGCGAUCUUGACCGGAAAGUGUCUGACCUGGAGAAUGAAGCCAAGAAGCAGGAGGCUGCCAUCAUGGACUAUCAACAGAGGAUUGAGCAUCA
B19: ENSG00000070961:be:win_6001|3pUTR|ENSG00000070961|bound_else_gene|NA|bound_elsewhere_windowed (ssRNA)
RNA: GGGAGUUCUACAGUCCGACGAUCCAAGACAUGCUUAGUGUGUAUUUCUCUCUUUGAGACACUGUAAUUUCUACCAGAAAUUUCCAGAGCAUUAUGUAGGUAGAAAAAAAUGCAAGCAAGCUGUUAAAGAUCUUGGAUCCCAUUCAACAGAGGAUUGAGCAUCA
B20: chr11:130144177:130144243:+|3pUTR|ENSG00000084234|msi1_unk|total|mutant (ssRNA)
RNA: GGGAGUUCUACAGUCCGACGAUCAUGAGGGUGUCCGCUGCUGCUUUCCUUCGGAAUCCAGUGCUUCCACAGAGAUCCGCCUGCCGCUUAUAUUUGACAUUCUUCACUGUCUGUUGUUUACCUACCGCCGCUUUUUACCGUUCACAACAGAGGAUUGAGCAUCA
B21: ENSG00000112679:stop:overlap|stop_codon|ENSG00000112679|stop_codon|NA|stop_codon (ssRNA)
RNA: GGGAGUUCUACAGUCCGACGAUCGCUUCCAGAGACAGCUCCAGGAGUUUGAGAAGCAUGAGGUCCAUCAGGUAAGCAGUUCUUAGGGGACAUCAGAGAUGCAGGCAGGUGCCCCUGAACGGUGCCCACAGUCUUUCCGUACACCAACAGAGGAUUGAGCAUCA
B22: chr1:155134173:155134274:+|3pUTR|ENSG00000169242|msi1|total|mutant (ssRNA)
RNA: GGGAGUUCUACAGUCCGACGAUCGCCACUUUCAGAGCCCCCAGCCCUGGGAACCACUCCCACCACAGGCAUAAGCUAUCACCCCGCAGCCUCAAAACGGGUCAGUAUUAAGGUUUUCAACCGGAAGGAGGCCAACCAGCCCGACAACAGAGGAUUGAGCAUCA

The target of this test is T1, UNK ZnF1-6 (called full-length). The test can be described thus: nsRBNS (natural sequence RNA bind-n-seq); RBNS binding buffer (assumed for nsRBNS): 25 mM Tris pH 7.5, 150 mM KCl, 3 mM MgCl2, 0.01% Triton X-100, 500 ug/ml BSA, 20 U/ml SUPERase-In, 4 C; UNK is unkempt and MSI1 is Musashi-1; names of the RNAs are library labels; protein concentration not given here; high values mean tight binding.
Turning to B1, the binding signal was 1.02 enrichment R.

On to B2, for which the binding signal was found to be 2.25 enrichment R.

On to B3, for which the binding signal came out at 0.912 enrichment R.

B4: the binding signal was 0.455 enrichment R.

B5 showed a binding signal of 0.9 enrichment R.

Take B6: the binding signal amounted to 1.88 enrichment R.

In turn, B7 displayed a binding signal of 3.8 enrichment R.

Molecule B8 had a binding signal of 0.323 enrichment R.

Turning to B9, the binding signal is 0.385 enrichment R.

The molecule B10 had a binding signal of 2.1 enrichment R.

With B11, the binding signal worked out at 0.393 enrichment R.

Molecule B12 showed a binding signal of 0.481 enrichment R.

Take B13: the binding signal amounted to 0.488 enrichment R.

In the case of B14, the binding signal amounted to 1.06 enrichment R.

Take B15: the binding signal is 0.431 enrichment R.

The molecule B16 displayed a binding signal of 5.22 enrichment R.

For the molecule B17, the binding signal worked out at 2.76 enrichment R.

Regarding B18, the binding signal amounted to 0.732 enrichment R.

B19 yielded a binding signal of 0.346 enrichment R.

Consider B20, for which the binding signal was determined as 0.644 enrichment R.

The molecule B21 displayed a binding signal of 0.556 enrichment R.

On to B22, for which the binding signal turned out to be 0.961 enrichment R.
